We go through one molecule from publication doi:10.1101/2024.07.26.605305 (bioRxiv, 2024).

The test addresses tau fibril seeds (fibrils of recombinant 4R2N tau, 441-residue isoform) (human, UniProt P10636-8 1-441). Kind of test: cross-linking.

B1: HTRA1^S328A (proteolytically inactive HTRA1, catalytic Ser328 exchanged by Ala), Strep-tagged, […], lacking the mac domain (enzyme)
chain: not shown
With B1, the binding result is “binds”.
